# Experimental data as given in US20090104205A1 (AstraZeneca / MedImmune, published 2009).
# How the values were obtained:
# [1] = target: T1, C-terminal truncated RSV F protein (secreted, from recombinant baculovirus) (respiratory syncytial virus, UniProt P03420 26-524); assay: SPR (BIAcore), F protein amine-coupled, Kd = kd/ka
# T1 construct: also called immobilized F protein
# [2] = target: T1, C-terminal truncated RSV F protein …; assay: SPR (BIAcore), F protein amine-coupled, Mab injected at 25-300 nM
binder,measurement,setting,value
"chimeric 1129 (murine 1129 VH and VL joined to human C-Gamma1 and C-Kappa) (antibody, V domains shown, also called CH1129; ch1129) VH: QVELQESGPGILQPSQTLSLTCSFSGFSLSTSGMSVGWIRQPSGEGLEWLADIWWDDKKDYNPSLKSRKTISKDTSSNQVFLKITGVDTADTATYYCARSMITNWYFDVWGAGTTVTVSS VL: DIQLTQSPAIMSASPGEKVTMTCSASSSVGYMHWYQQKSSTSPKLWIYDTSKLASGVPGRFSGSGSGNSYSLTISSIQAEDVATYYCFQGSGYPFTFGGGTKLEIK",Kd,[1],1.5 nM
same,koff,[2],7.5e-05 s⁻¹
same,kon,[2],50000 M⁻¹ s⁻¹
same,t1/2 (dissociation half-life),[2],2.6 h
